Laboratory results reported in patent EP4702992A1, “ANTIBODY-DRUG CONJUGATE” (priority 2023, dated 2024).

B1: D-ADC2-1-8 (conjugate)
heavy: QVQLVQSGAEVKKPGASVKVSCKASGYTFTDYYMKWVRQAPGQRLEWMGAFNLNNGDTFYNQKFKGRVTITRDTSASTAYMELSSLRSEDTAVYYCARDVYGYGDYWGQGTSVTVSSASTKGPSVFPLAPSSKSTSGGTAALGCLVKDYFPEPVTVSWNSGALTSGVHTFPAVLQSSGLYSLSSVVTVPSSSLGTQTYICNVNHKPSNTKVDKKV[human IgG1 Fc with L234A L235A P329A P331S (EU numbers) not given here]
light: DIVMTQSPDSLAVSLGERATINCRASKSVSTSGYSYMHWYQQKPGQPPKLLIYLASNLDSGVPDRFSGSGSGTDFTLTISSLQAEDVAVYYCQHSRELPYTFGGGTKLEIKRTVAAPSVFIFPPSDEQLKSGTASVVCLLNNFYPREAKVQWKVDNALQSGNSQESVTEQDSKDSTYSLSSTLTLSKADYEKHKVYACEVTHQGLSSPVTKSFNRGEC
B2: D-ADC12-1-8 (conjugate)
heavy: B1 heavy
light: B1 light

Key:
[1] = DAR determination by reversed-phase chromatography; details: average drug loading per antibody
Description: The antibody sample was diluted to about 10 mg/mL with a suitable buffer (consistent with the sample buffer), and an appropriate amount of a reducing agent TCEP was added, with the number of equivalents adjusted according to a target DAR (8-10 equivalents for a target DAR of 8). The pH was then adjusted to 7-7.4 with a Tris buffer, and the antibody was reduced at room temperature for 1-1.5 h. The reduced intermediate state of the antibody could be monitored by CE-SDS. […] The conjugation reaction was performed at room temperature for about 30 min. After the conjugation was completed, the reaction liquid was first filtered, and then subjected to buffer exchange by ultrafiltration using a centrifugal concentration tube to remove excess linker-drug and other small-molecule impurities. After the purification was completed, the resulting sample was subjected to DAR determination by reversed-phase chromatography.
The concentration of the antibody trastuzumab was adjusted to 10 g/L using a phosphate buffer solution (pH 7.0), and the antibody solution after buffer exchange was placed into a centrifuge tube, followed by the addition of 8.0 equivalents of 5 mM TCEP (Adamas-beta, Ltd.). […] The average drug loading per antibody was determined by reversed-phase chromatography.
The concentration of the antibody farletuzumab or farletuzumab FcS was adjusted to 10 g/L using a phosphate buffer solution (pH 7.0), and the antibody solution after buffer exchange was placed into a centrifuge tube, followed by the addition of 7.0 equivalents of 5 mM TCEP (Adamas-beta, Ltd.). […] The average drug loading per antibody was determined by reversed-phase chromatography.
The concentration of the antibody 33B was adjusted to 10 g/L using a phosphate buffer solution (pH 7.0), and the antibody solution after buffer exchange was placed into a centrifuge tube, followed by the addition of 10.0 equivalents of 5 mM TCEP (Adamas-beta, Ltd.). […] The average drug loading per antibody was determined by reversed-phase chromatography. […]

SHP77 xenograft tumor = assay: Pharmacodynamic evaluation in SHP77 xenograft tumor mouse model; format: in vivo, nu/nu nude mice; details: SHP77, 1 mg/kg, single intravenous injection; for Mean tumor volume (Day 0): Day 0 (day of grouping); for Mean tumor volume (Day 0) / Mean tumor volume (Day 22): mean ± standard error; for TGI(%) / Mean tumor volume (Day 22): Day 22
Source text: Cells were taken from the DLL3-positive cell strain SHP77 and inoculated into the right forelimb axilla of nu/nu nude mice at 10^7 cells/mouse (7 mice per group). When the mean tumor volumes of the mice reached about 100 mm^3 (groups 1-6), the mice were randomly grouped and subjected to administration by a single intravenous injection. The day of grouping was defined as Day 0, and the administration was started on Day 0. After tumor grafting, the experimental animals were routinely monitored for tumor growth and the effect of treatment on the normal behavior, specifically the activity, food and water intake, body weight gain or loss (the body weight was measured twice a week), and abnormalities in eyes, fur, and other aspects. Calculation formula for tumor volume: Tumor volume (mm^3) = 1/2 × (a × b^2) (where a represents the long diameter, and b represents the short diameter). Table 23: Pharmacodynamic evaluation of test drugs in human small cell lung cancer xenograft SHP-77 mouse model

Row | Molecule | DAR [1] | Mean tumor volume (Day 0) (SHP77 xenograft tumor) [mm^3] | TGI(%) (SHP77 xenograft tumor) | Mean tumor volume (Day 22) (SHP77 xenograft tumor) [mm^3]
1 | B1 | 8.0 | 104.1±15.6 | 96.6 | 199.2±166.9
2 | B2 | 8.0 | 104.3±14.7 | 97.1 | 187.7±63.9
